Reference: patent publication US8580254B2, “Anti-IGF antibodies” (Boehringer Ingelheim International GmbH, priority 2007, dated 2013)

Key:
[1] = tested on: COLO 205 tumour cells xenografted into nude mice; experiment: In vivo COLO 205 xenograft study; parameters: species or system athymic NMRI nude mice
Procedure: Female athymic NMRI nude mice, 6-8 weeks old, are inoculated subcutaneously in the right flank with the COLO 205 human colon tumour-derived cell line (ATCC #CCL-222) (5×10^6 in 100 μl Ringer solution). Tumour cell growth is assessed by measuring tumour volume three times per week using calipers and the formula: π/6× larger diameter×(smaller diameter)^2. Treatment is administered intravenously to groups of ten mice and commenced when tumours have developed to a size of between 130 to 270 mm^3. The treatment schedule consists of two times weekly intravenous infusions of vehicle and antibody 40186 at a dose of 25 mg/kg for two treatment cycles. In combinations of antibody with 5FU, a dose of 50 mg/kg 5FU is administered weekly. The study is terminated when tumours reached an average size of 1500 mm^3. All animal experiments are performed according to the legal requirements in Austria as well as guidelines of the American Association for Laboratory Animal Science (AALAS).

rat IGF-2 = molecular target: T1, rat IGF-2 (Rattus norvegicus, UniProt P01346); experiment: ELISA binding titration of IgG1 antibodies; conditions: FIG. 1F
T1 construct: insulin-like growth factor-2 (IGF-2; a 67 amino-acid polypeptide)
Procedure: (§1) ELISA screening for IGF-1 positive Fab clones is performed by coating Maxisorb 384-well plates overnight at 4° C. with 5 μg/ml recombinant human IGF-1 (Gropep) in 1× coating buffer (Gibco). Wells are washed with 1×TBS-T and blocked with 1× Blocking Buffer (Gibco) for 1 h at room temperature. Bacterial lysates containing antibody Fab fragments are added for 1.5 hr at room temperature, then washed five times with 1×TBS-T and detected with Alkaline Phosphatase-conjugated Affini Pure Goat Anti-HumanIgG F(ab′)2. Fragment Specific Mab (Dianova) at a dilution of 1:10 000 and visualized with Attophos Substrate (Roche). Fluorescence readings are performed on Tecan fluorescence reader at excitation 430 nm and emission 535 nm.
(§2) Cross-reactivity to recombinant human IGF-1, murine IGF-1, murine IGF-2 (R&D Systems), recombinant human IGF-2, rat IGF-1, rat IGF-2 (Gropep) and recombinant human insulin (Roche) is performed by ELISA using the same procedure as above, but with a 1 μg/ml coating dilution.

murine IGF-2 = molecular target: T2, murine IGF-2 (Mus musculus, UniProt P09535); experiment: ELISA binding titration of IgG1 antibodies; conditions: FIG. 1D
T2 construct: insulin-like growth factor-2 (IGF-2; a 67 amino-acid polypeptide); purchased R&D Systems
Procedure: as §1, §2

human IGF-1 [2] = molecular target: T3, human IGF-1 (Homo sapiens, UniProt P05019); experiment: ELISA binding titration of IgG1 antibodies; conditions: FIG. 1A
T3 construct: Insulin-like growth factor-1 (IGF-1; a 70 amino-acid polypeptide)
Procedure: as §1, §2

human IGF-2 [3] = molecular target: T4, human IGF-2 (Homo sapiens, UniProt P01344); experiment: ELISA binding titration of IgG1 antibodies; conditions: FIG. 1B
T4 construct: insulin-like growth factor-2 (IGF-2; a 67 amino-acid polypeptide)
Procedure: as §1, §2

murine IGF-1 = molecular target: T5, murine IGF-1 (Mus musculus, UniProt P05017); experiment: ELISA binding titration of IgG1 antibodies; conditions: FIG. 1C
T5 construct: Insulin-like growth factor-1 (IGF-1; a 70 amino-acid polypeptide); purchased R&D Systems
Procedure: as §1, §2

rat IGF-1 = molecular target: T6, rat IGF-1 (Rattus norvegicus, UniProt P08025); experiment: ELISA binding titration of IgG1 antibodies; conditions: FIG. 1E
T6 construct: Insulin-like growth factor-1 (IGF-1; a 70 amino-acid polypeptide)
Procedure: as §1, §2

[4] = molecular target: T7, biotinylated-IGF-1 binding to coated insulin-like growth factor-1 receptor (Homo sapiens, UniProt P05019); experiment: ELISA neutralization of biotinylated IGF-1 binding to coated IGF-1R
T7 construct: Insulin-like growth factor-1 (IGF-1; a 70 amino-acid polypeptide); purchased R&D Systems (IGF-1R)
Procedure: To identify IGF antibodies that neutralize the ability of IGF-1 and IGF-2 to bind to the IGF-1R, an ELISA is established by coating plates with 1.5 μg/ml recombinant human IGF-1R (R&D Systems) which allows the binding of biotinylated IGF-1 and biotinylated IGF-2. Bound IGF-1 or IGF-2 is detected using alkaline phosphatase-conjugated streptavidin (1:10,000 dilution) (Roche). The neutralization potency of antibody Fab fragments is measured by adding 0.1-1 μg/ml of Fab to the wells coated with IGF-1R just prior to the addition of biotinylated IGF-1 or IGF-2 ligands. Antibody Fab fragments that block the binding of biotinylated ligand are identified by a reduction in fluorometric signal.

total murine serum IGF-1 = experiment: Effect on total murine serum IGF-1 levels; assay type: in vivo, athymic NMRI nude mice; conditions: single i.v. doses 12.5, 25, 50, 100 mg/kg; 24 hour post administration; FIG. 8
Procedure: Single intravenous (bolus) administrations of 12.5, 25, 50 and 100 mg/kg of antibody 40186 are given to female athymic NMRI nude mice, 6-8 weeks old (n=5). 24 hours post administration a blood sample is taken, serum collected, and total murine IGF-1 levels determined using the OCTEIA rat/mouse total IGF-1 immunocytometric assay. The assay is performed according to the manufacturer's instructions, absorbance is measured at 450 nm and evaluated using the SoftMax Pro software. A standard curve is used to determine the serum concentration of total IGF-1 in ng/ml. Statistical analysis is performed using the GraphPad Prism software.

human IGF-1 [5] = molecular target: T3, human IGF-1; experiment: Surface plasmon resonance (Biacore), IGF coating method; assay type: binding
Procedure: (§3) The determination of binding constants of IGF antibodies to IGF ligands when the sensor chip is coated with IGF ligands is essentially performed as described above except that the sensor chip is coated with 35.1 pg/mm^2 and 38.5 pg/mm^2 IGF-1 and IGF-2 respectively. The antibodies are then flowed over the chip at the following concentrations: 50, 25, 12.5, 6.25, 3.12 nM.
(§4) Affinity constants are also determined for binding of the IGF antibodies to human IGF-1 and IGF-2 using a method where the IGF ligands are coated to the Biacore sensor chip and a range of antibody concentrations injected. The approximately 30-50-fold increase in the binding constants using this method compared with the initial antibody capture method is likely due to an avidity effect where both antibody binding domains interact with an IGF molecule.

human IGF-2 [6] = molecular target: T4, human IGF-2; experiment: as above; assay type: binding
Procedure: as §3, §4

[7] = human IGF-1, IGF coating method

T6 sequence (P08025 49-118 limits assumed): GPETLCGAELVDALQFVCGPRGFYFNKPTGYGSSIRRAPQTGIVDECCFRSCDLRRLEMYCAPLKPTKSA
T1 sequence (P01346 25-91 limits assumed): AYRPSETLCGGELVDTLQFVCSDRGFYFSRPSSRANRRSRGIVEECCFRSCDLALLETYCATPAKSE

binding to rat IGF-2 (ELISA) (rat IGF-2): concentration dependent binding
binding to murine IGF-2 (ELISA) (murine IGF-2): concentration dependent binding
binding to human IGF-1 (ELISA) (human IGF-1 [2]): concentration dependent binding
binding to human IGF-2 (ELISA) (human IGF-2 [3]): concentration dependent binding
binding to murine IGF-1 (ELISA) (murine IGF-1): concentration dependent binding
binding to rat IGF-1 (ELISA) (rat IGF-1): concentration dependent binding
IC50, inhibition of IGF-1 ligand binding to IGF-1R ([4]; FIG. 2): approximately 5 ng/ml
IC50 ([4]; FIG. 2, read-out: IC50, inhibition of IGF-1 ligand binding to IGF-1R): ~0.03 nM
KA (human IGF-1 [5]; [7]): 1.22e+10 M⁻¹
kass (human IGF-1 [5]; [7]): 2.1e+06 M⁻¹ s⁻¹
kdiss (human IGF-1 [5]; [7]): 0.00023 s⁻¹
increase in the binding constants, IGF coating method compared with antibody capture method (human IGF-1 [5]; human IGF-1 and IGF-2, likely due to an avidity effect): 30-50 fold
KA (human IGF-2 [6]): 1.45e+10 M⁻¹
kass (human IGF-2 [6]): 2.26e+06 M⁻¹ s⁻¹
kdiss (human IGF-2 [6]): 0.000164 s⁻¹
B1: antibody 40186: fully human IgG1/Igλ antibody binding IGF-1 and IGF-2; heavy chain SEQ ID NO:25, light chain SEQ ID NO:26 (antibody, listed as Homo sapiens)
heavy: QVELVESGGGLVQPGGSLRLSCAASGFTFSNYWMHWVRQAPGKGLEWVSGISGWSSWTYYADSVKGRFTISRDNSKNTLYLQMNSLRAEDTAVYYCARFGIDAYTKVYFDYWGQGTLVTVSS[in this place human IgG1 constant region]
light: DIELTQPPSVSVAPGQTARISCSGDNIPLKYVSWYQQKPGQAPVLVIHDDNKRPSGIPERFSGSNSGNTATLTISGTQAEDEADYYCQSWASTGVVFGGGTKLTVLGQPKAAPSVTLFPPSSEELQANKATLVCLISDFYPGAVTVAWKGDSSPVKAGVETTTPSKQSNNKYAASSYLSLTPEQWKSHRSYSCQVTHEGSTVEKTVAPTECS
decrease in median tumour growth ([1]; 25 mg/kg 40186 in combination with 50 mg/kg 5FU once weekly, FIG. 7): 60%
decrease in median tumour growth compared with vehicle ([1]; 25 mg/kg antibody twice per week i.v., nude mice, FIG. 6): 45%
serum total murine IGF-1 levels (total murine serum IGF-1): dose dependent elevation
